Among the data in PubChem BioAssay (NCATS) are AC50 values, retold here.

As usually defined, the AC50 is the concentration giving half of the maximal activity seen.

The other results are listed elsewhere or left out. Shown are side measurements of this screen, not its main read-out; they come without a call. Compounds called inactive in the main read-out are mostly missing here. Potencies come from curve fits of mixed quality, noted in brackets.
Tags give direction and shape of the fitted curve.

The first experiment is described as follows: qHTS Assay for Lipid Storage Modulators (AID 1519). The settings on record: Drosophila S3 cells, BODIPY lipid droplet/cell ratio, laser cytometry; measured here: cell number channel AC50; cells loaded with oleic acid. In short, it runs like this: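 Cells seeded at 5,000 per well were treated with compounds over a concentration series and loaded with oleic acid (400 uM, as added). Lipid droplet fluorescence (488 nm excitation, 500-530 nm channel) was read by laser-scanning cytometry and normalized to 20 uM Triacsin C.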
(Quantitative high-throughput screening tests each substance at several concentrations.)
In the case of `CN(C)c1ncc2nc(-c3cc(F)cc(F)c3)c(=O)n(Cc3cccs3)c2n1`, the AC50 is 4470 nM [rising, partial curve].
On the same count and under the same terms, next, `COc1cccc(Nc2ncc3nc(CCc4ccccc4)c(=O)n(Cc4cccs4)c3n2)c1`: 12600 nM [rising, partial curve]; `COc1ncc2nc(CCc3ccccc3)c(=O)n(Cc3cccs3)c2n1`: 4470 nM [rising, partial curve]; `CCCCCCCCCCCCCCCCCCc1ccc(C(=O)/C=C\C(=O)O)cc1`: 2510 nM [rising, partial curve, poor fit].
Turning to `COc1ccc(Oc2ncc3nc(-c4cccs4)c(=O)n(C)c3n2)cc1`, the AC50 was 141 nM [rising, full curve, poor fit].

The same experiment, now with this note: Drosophila S3 cells, BODIPY lipid droplet/cell ratio, laser cytometry; measured here: lipid (BODIPY) channel AC50; cells loaded with oleic acid.
For the molecule `COCCn1c(=O)c(-c2ccc(Cl)cc2)nc2cnc(Oc3ccc(OC)cc3)nc21`, the AC50 is 1580 nM [rising, partial curve].
In the case of `O=C(c1cccc(F)c1)N1CCC2(CC1)CCN(c1ccccn1)CC2`, the AC50 is 1000 nM [rising, full curve, poor fit].
As to `Cc1ccccc1-c1nc(NC2CCNCC2)c2ccccc2n1`, the AC50 is 3980 nM [rising, full curve].
On the same count and under the same terms, next, `CC(=O)NCCNc1ncncc1-c1ccccc1CN(C)C`: 891 nM [rising, partial curve, poor fit]; `O=c1c(-c2cccc(Cl)c2)nc2cncnc2n1Cc1ccccc1Cl`: 1000 nM [rising, full curve]; `CN(C)C(=O)c1ccc(-c2ccc3ncnc(N4CCOCC4)c3c2)cc1`: 3550 nM [rising, single point].
